From the supplement of paper PMC10441789
Some of the results follow. Antibody binding of pooled human sera (four to six donors per pool; dilution not stated) to peptides of the Trypanosoma cruzi antigen TSSA on microarrays. Quantile-normalised fluorescence in arbitrary units, mean of duplicate arrays; higher = more binding. No active / inactive call. The uninfected pools are read here as the healthy donors of the same country. The strongest signals lie near the top of the scale (about 60,000).

tested on: pooled sera of uninfected people, Colombia; assay: antibody binding signal (normalised fluorescence) (arbitrary fluorescence units); higher = stronger serum antibody binding to peptide
Experimental: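 Microarray of 15-residue peptides over residues 30-55 of Trypanosoma cruzi TSSAII, each with 1 to 10 substitutions at naturally variable positions, probed with one serum pool per country.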

Row | Sequence | antibody binding signal
1 | GKEKKPATGGAPSQS | 86.4
2 | GKEKKAAAGETPSPP | 89.2
3 | SSTPPSGTDNKAATG | 163
4 | KENKPAAGEAPSPPG | 112
5 | EKKTAAGGTPSPSGA | 266
6 | SGKEKKAATGGTPSP | 378
7 | SSTPPSGTEKKTAAG | 134
8 | KENKPAAGGAPSQPG | 104
9 | PSGKDNKAATGGAPS | 171
10 | PSGTDKKPATGETPS | 712
11 | PPSGTEKKTAAGEAP | 711
12 | ENKTATGEAPSPPGA | 164
13 | GTENKPATGETPSPP | 195
14 | ISTPPSGKDNKTATG | 199
15 | GKDKKAAAGETPSPP | 81.3
16 | KDKKPAAGGTPSQSG | 85.3
17 | ENKTATGETPSQPGA | 233
18 | PSGTDKKAAAGGAPS | 187
19 | STPPSGKDKKAAAGG | 135
20 | TPPSGKENKAAAGET | 1090

Row | Sequence | antibody binding signal
21 | SSTPPSGKEKKAAAG | 214
22 | TPPSGKDKKAAAGEA | 209
23 | NKAATGETPSPSGAS | 358
24 | KKAATGGAPSPPGAS | 301
25 | SSTPPSGTEKKAATG | 363
26 | GKENKTAAGGAPSQS | 129
27 | KDKKTAAGEAPSQPG | 570
28 | KEKKAATGEAPSQPG | 219
29 | KDNKTAAGEAPSQSG | 247
30 | KTAAGETPSPPGASS | 150
31 | DKKPAAGGAPSQSGA | 124
32 | GKDNKAATGETPSQP | 370
33 | PPSGTDNKTATGEAP | 332
34 | GKENKAATGGTPSQP | 138
35 | GTENKTATGGAPSQP | 224
36 | EKKAAAGETPSQPGA | 663
37 | KENKTATGGAPSPPG | 102
38 | DKKPAAGGTPSPPGA | 218
39 | NKPAAGETPSQSGAS | 447
40 | GTEKKTATGETPSQS | 114
